The IC50 comes from the fitted curve, where viability falls to half of the control; a fit beyond the top or the lowest dose is shown as a bound at that dose. AUC sums up the same curve from the lowest dose to the 256-fold higher top dose; values near 1 show little effect. Any top dose called inferred was derived from the fitted curves, not read from the paper.
Compound: COc1ncc(-c2ccc3nccc(-c4ccnnc4)c3c2)cc1NS(=O)(=O)c1ccc(F)cc1F [GSK2126458]
Test: Viability of human cancer cell lines after 72 h of drug (GDSC screen)
Conditions: top dose inferred
Protocol: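 Human cancer cell lines in 384-well plates, medium with 10% serum, drug for 72 h over a 256-fold dose range (nine 2-fold or five 4-fold steps up to the top dose). Adherent lines were fixed and stained with the nucleic acid dye Syto60, suspension lines read with resazurin; signal relative to control wells, capped at 0 and 100%. One two-parameter sigmoid per drug and line, fitted in a mixed model over all curves with the slope shared within a line.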

Cell Line	AUC	IC50 [nM]
SW156 (kidney, adherent, top dose 0.128 µM)	0.735	40.9
SW620 (large intestine, adherent, top dose 1.024 µM)	0.418	39.2
SW626 (ovary, adherent, top dose 0.128 µM)	0.632	19.8
SW684 (fibrosarcoma, adherent, top dose 0.128 µM)	0.925	> 128
SW756 (cervix, adherent, top dose 0.128 µM)	0.934	> 128
SW780 (bladder, adherent, top dose 0.128 µM)	0.956	> 128
SW837 (large intestine, adherent, top dose 0.128 µM)	0.74	49.3
SW872 (soft tissue, adherent, top dose 0.128 µM)	0.883	114
SW900 (lung squamous cell carcinoma, adherent, top dose 0.128 µM)	0.838	107
SW948 (large intestine, adherent, top dose 1.024 µM)	0.45	43.9
SW954 (urogenital system, adherent, top dose 0.128 µM)	0.38	3.73
SW962 (urogenital system, adherent, top dose 0.128 µM)	0.891	> 128
SW982 (soft tissue, adherent, top dose 0.128 µM)	0.702	30.2
SW1088 (glioma, adherent, top dose 0.128 µM)	0.734	46.4
SW1116 (large intestine, adherent, top dose 0.128 µM)	0.985	> 128
SW1271 (small cell lung carcinoma, adherent, top dose 0.128 µM)	0.894	> 128
SW1417 (large intestine, adherent, top dose 0.128 µM)	0.897	> 128
SW1463 (large intestine, adherent, top dose 0.128 µM)	0.702	45.1
SW1573 (lung adenocarcinoma, adherent, top dose 0.128 µM)	0.893	> 128
SW1710 (bladder, adherent, top dose 0.128 µM)	0.686	27.1
SW1783 (glioma, adherent, top dose 0.128 µM)	0.789	50.6

Cell Line	AUC	IC50 [nM]
SW1990 (pancreas, adherent, top dose 0.128 µM)	0.893	> 128
Saos-2 (osteosarcoma, adherent, top dose 0.128 µM)	0.943	> 128
SiHa (cervix, adherent, top dose 0.128 µM)	0.968	> 128
T84 (large intestine, adherent, top dose 0.128 µM)	0.743	40.4
T98G (glioma, adherent, top dose 0.128 µM)	0.776	47.1
T-24 (bladder, adherent, top dose 0.128 µM)	0.887	> 128
T-T (oesophagus, adherent, top dose 0.128 µM)	0.838	86.2
TALL-1 (T-cell lymphoblastic leukaemia, suspension, top dose 0.128 µM)	0.93	> 128
TC-71 (Ewing sarcoma, adherent, top dose 0.128 µM)	0.548	10.5
TCCSUP (bladder, adherent, top dose 0.128 µM)	0.886	> 128
TE-1 (oesophagus, adherent, top dose 0.128 µM)	0.914	> 128
TE-4 (oesophagus, adherent, top dose 0.128 µM)	0.612	16.2
TE-5 (oesophagus, adherent, top dose 0.128 µM)	0.781	61.8
TE-6 (oesophagus, adherent, top dose 0.128 µM)	0.927	> 128
TE-8 (oesophagus, adherent, top dose 0.128 µM)	0.966	> 128
TE-9 (oesophagus, adherent, top dose 0.128 µM)	0.984	> 128
TE-10 (oesophagus, adherent, top dose 0.128 µM)	0.851	95
TE-11 (oesophagus, adherent, top dose 0.128 µM)	0.937	> 128
TE-12 (oesophagus, suspension, top dose 0.128 µM)	0.825	100
TE-15 (oesophagus, suspension, top dose 0.128 µM)	0.665	24.6
TE-441-T (rhabdomyosarcoma, adherent, top dose 0.128 µM)	0.864	104

Cell Line	AUC	IC50 [nM]
TGBC1TKB (biliary tract, adherent, top dose 0.128 µM)	0.934	> 128
TGBC11TKB (stomach, adherent, top dose 0.128 µM)	0.992	> 128
TGBC24TKB (biliary tract, adherent, top dose 0.128 µM)	0.788	52.3
TGW (neuroblastoma, adherent, top dose 0.128 µM)	0.88	101
THP-1 (acute myeloid leukaemia, suspension, top dose 0.128 µM)	0.551	10.9
TK10 (kidney, adherent, top dose 0.128 µM)	0.69	30.9
TK (B-cell lymphoma, suspension, top dose 0.128 µM)	0.45	5.92
TMK-1 (stomach, adherent, top dose 0.128 µM)	0.908	> 128
TOV-21G (ovary, adherent, top dose 0.128 µM)	0.908	> 128
TOV-112D (ovary, adherent, top dose 0.128 µM)	0.562	11.9
TT2609-C02 (thyroid, adherent, top dose 0.128 µM)	0.847	103
TT (thyroid, adherent, top dose 0.128 µM)	0.971	> 128
TUR (B-cell lymphoma, suspension, top dose 0.128 µM)	0.421	4.94
TYK-nu (ovary, adherent, top dose 0.128 µM)	0.962	> 128
U031 (kidney, adherent, top dose 0.128 µM)	0.716	33.6
U251 (glioma, adherent, top dose 0.128 µM)	0.76	43
U-2-OS (osteosarcoma, adherent, top dose 0.128 µM)	0.9	> 128
U-87-MG (glioma, adherent, top dose 0.128 µM)	0.606	16.5
U-118-MG (glioma, adherent, top dose 0.128 µM)	0.563	12.2
U-698-M (B-cell leukaemia, suspension, top dose 0.128 µM)	0.924	> 128
UACC-62 (melanoma, adherent, top dose 0.128 µM)	0.74	38.6

Cell Line	AUC	IC50 [nM]
UACC-257 (melanoma, adherent, top dose 0.128 µM)	0.792	74.1
UACC-812 (breast, adherent, top dose 0.128 µM)	0.827	74.9
UACC-893 (breast, adherent, top dose 0.128 µM)	0.559	12.2
UM-UC-3 (bladder, adherent, top dose 0.128 µM)	0.431	5.26
UMC-11 (lung carcinoid, adherent, top dose 0.128 µM)	0.859	88.6
UWB1.289 (ovary, adherent, top dose 0.128 µM)	0.822	> 128
VA-ES-BJ (soft tissue, adherent, top dose 0.128 µM)	0.787	59.1
VAL (B-cell lymphoma, suspension, top dose 0.128 µM)	0.658	22
VCaP (prostate, adherent, top dose 0.128 µM)	0.41	4.49
VM-CUB-1 (bladder, adherent, top dose 0.128 µM)	0.932	> 128
VMRC-MELG (melanoma, adherent, top dose 0.128 µM)	0.956	> 128
VMRC-RCW (kidney, adherent, top dose 0.128 µM)	0.866	100
VMRC-RCZ (kidney, adherent, top dose 0.128 µM)	0.789	66.9
WIL2-NS (lymphoid neoplasm, suspension, top dose 0.128 µM)	0.445	5.84
WM35 (melanoma, adherent, top dose 0.128 µM)	0.338	2.83
WM278 (melanoma, adherent, top dose 0.128 µM)	0.855	123
WM793B (melanoma, adherent, top dose 0.128 µM)	0.629	18.9
WM1552C (melanoma, adherent, top dose 0.128 µM)	0.543	10.5

Source: the supplement of paper PMC4967469
